Data reported in PubChem BioAssay AID1460 (National Center for Advancing Translational Sciences (NCATS), 2008).
Out of some 270,000 compounds screened, about 5,800 (2.1%) were called active. The shares of active, inactive and inconclusive entries below differ from those in the screen. Calls come from the whole dose curve; as a rule, active = well fitted inhibition curve with a large enough effect; inconclusive = small, poorly fitted or top-dose-only effect; inactive = flat fitted curve, though single readings scatter. A potency beside an inconclusive call is a rough fit, not a confirmed value.

Target: Microtubule-associated protein tau (Homo sapiens) (UniProt P10636)
Chain of UniProt P10636 (P10636 whole entry, looked up): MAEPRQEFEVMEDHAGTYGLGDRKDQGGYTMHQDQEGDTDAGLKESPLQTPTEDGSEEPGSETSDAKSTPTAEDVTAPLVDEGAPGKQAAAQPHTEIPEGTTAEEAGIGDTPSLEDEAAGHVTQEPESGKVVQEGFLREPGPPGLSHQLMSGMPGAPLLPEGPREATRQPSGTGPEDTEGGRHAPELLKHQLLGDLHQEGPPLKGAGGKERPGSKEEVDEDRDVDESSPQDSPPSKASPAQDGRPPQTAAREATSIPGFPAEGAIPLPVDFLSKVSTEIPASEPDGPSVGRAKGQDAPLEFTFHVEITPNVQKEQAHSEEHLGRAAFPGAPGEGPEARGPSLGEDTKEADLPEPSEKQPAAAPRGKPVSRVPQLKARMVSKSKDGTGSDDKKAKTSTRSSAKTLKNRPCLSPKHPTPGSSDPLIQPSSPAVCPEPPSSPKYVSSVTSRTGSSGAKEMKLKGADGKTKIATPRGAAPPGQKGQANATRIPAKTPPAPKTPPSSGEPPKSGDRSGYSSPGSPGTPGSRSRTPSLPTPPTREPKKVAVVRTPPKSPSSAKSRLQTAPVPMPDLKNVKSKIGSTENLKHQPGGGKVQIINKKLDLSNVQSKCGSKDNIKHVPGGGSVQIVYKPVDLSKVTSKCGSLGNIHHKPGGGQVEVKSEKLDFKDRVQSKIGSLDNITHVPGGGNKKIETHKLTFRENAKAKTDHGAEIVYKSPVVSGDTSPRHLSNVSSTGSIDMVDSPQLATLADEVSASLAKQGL
Experiment: qHTS for Inhibitors of Tau Fibril Formation, Thioflavin T Binding; note: nearly all actives have a fitted effect of over 55% in size
Conditions: recombinant tau K18 P301L (four-repeat tau fragment), heparin-induced fibrillization, ThT fluorescence; series mostly up to 57.4 µM
Outline: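 Tau K18 P301L fragment (15 uM unlabeled plus 0.24 uM Alexa 594-labeled) in 100 mM sodium acetate pH 7 with compound, fibrillization induced by 20 uM heparin for 6 hr at 37 C. Thioflavin T (30 uM) added, fluorescence read after 1 hr (ex 450, em 510 nm).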
Potency is the fitted concentration of half-maximal effect; tags give direction and shape of the fitted curve.

Row | SMILES | Potency
1 | Cc1ccc(CN(C(=O)COc2ccc(C(C)C)cc2)C2CCS(=O)(=O)C2)o1 (stereo not given) | inactive
2 | Cc1ccc(N=Cc2cc3c(cc2O)OC(N)=C(C#N)C3c2ccccc2)cc1 (stereo not given) | inconclusive: 17.8 µM [inhibitor, partial curve]
3 | COc1cccc(/C=N/Nc2nc3ccccc3n3cnnc23)c1O | inconclusive: 3.98 µM [inhibitor, full curve]
4 | O=C(NC(CC(=O)N1CCN(c2ccc([N+](=O)[O-])cc2)CC1)c1ccccc1)c1ccccc1Cl (stereo not given) | inconclusive: 14.1 µM [inhibitor, partial curve]
5 | Cn1nc(C(=O)NC2CCCc3ccccc32)ccc1=O (stereo not given) | inactive
6 | COc1ccc(OCC(=O)Nc2ccc(O)c(-c3nc4ccccc4s3)c2)cc1 | inconclusive: 1.26 µM [inhibitor, full curve]
7 | O=C(c1ccc2[nH]c3c(c2c1)CCCC3)N1CCN(c2ccc(F)cc2)CC1 | inconclusive: 20 µM [inhibitor, single point]
8 | Cc1ccc(S(=O)(=O)Nc2nc3ccccc3nc2N2CCc3ccccc3C2)cc1 | inconclusive: 10 µM [inhibitor, partial curve]
9 | CC(=O)Nc1ccc(OCC(O)Cn2c(C)nc3ccccc32)cc1 (stereo not given) | inconclusive: 3.55 µM [inhibitor, partial curve]
10 | O=C(Cc1ccc(F)cc1)N1CCC(c2nc3c(nnn3Cc3ccc(F)cc3)c(=O)[nH]2)CC1 | inactive
11 | N#Cc1ccccc1Cn1c(=O)n(CCCCC(=O)NCc2ccc3c(c2)OCO3)c(=O)c2ccccc21 | inactive
12 | CCOC(=O)c1c(C)oc2c1c(C(c1cccnc1)N1CCN(C)CC1)c(O)c1ccccc12 (stereo not given) | inconclusive: 15.8 µM [inhibitor, partial curve]
13 | Cc1c(Cl)sn(-c2ccc(Cl)cc2)c1=O | active: 14.1 µM
14 | CC(C)(C)c1csc(NC(=O)CSc2nc3ccccc3c(=O)[nH]2)n1 | inactive
15 | O=C(NC(=S)N1CCN(C/C=C/c2ccccc2)CC1)c1ccc(F)cc1 | inconclusive: 20 µM [inhibitor, single point]
16 | CC1=NN(C(C#N)c2ccc([N+](=O)[O-])cc2)C(C)(C)C1 (stereo not given) | inconclusive: 3.16 µM [inhibitor, partial curve, poor fit]
17 | CCC(=O)Nc1ccc(C(=O)CSc2nc3ccc(C)cc3[nH]2)cc1 | inconclusive: 12.6 µM [inhibitor, partial curve]
18 | Cc1ccc(-n2nc(C)c(/C=N/n3c(C)n[nH]c3=S)c2Cl)cc1 | inconclusive: 15.8 µM [inhibitor, partial curve]
19 | Cc1coc2cc3oc(=O)c4c(c3cc12)CCC4 | inactive
20 | CCN1CCN(CCC(=O)Nc2ccccc2OC)CC1 | inactive
21 | COc1cc(NC(=S)N2CCCCC2C)c(OC)cc1Cl (stereo not given) | inconclusive: 17.8 µM [inhibitor, single point]
22 | CC1Cc2ccccc2N1Cc1cc(=O)n2ccsc2n1 (stereo not given) | inactive
23 | COc1ccc(C(=O)NNC(=O)CCn2nnc(-c3ccc(Cl)cc3)n2)cc1OC | inactive
24 | CN(C)CCC(=O)c1ccc2c(c1)OCO2 | inconclusive: 7.94 µM [inhibitor, full curve]

Row | SMILES | Potency
25 | CCn1c(CSc2nnc(C)n2-c2ccccc2)nc2cc(S(=O)(=O)N(C)C)ccc21 | inactive
26 | Cc1ccc(C(=O)OCC(=O)Nc2ccccc2Sc2ccccc2)cc1C | inactive
27 | C=CCc1ccc(OC(=O)c2ccccc2)c(OC)c1 | inactive
28 | N#Cc1ccc(C(=O)Nc2ccn(-c3ccccc3)n2)cc1 | inconclusive: 3.55 µM [inhibitor, partial curve, poor fit]
29 | Cc1nc2c(C)cccn2c1/C(O)=C1\C(=O)C(=O)N(CCN(C)C)C1c1ccco1 (stereo not given) | inconclusive: 11.2 µM [inhibitor, partial curve, poor fit]
30 | CCN(CCO)c1ccc(-n2c(N)c(C(=O)OC)c3nc4ccccc4nc32)cc1 | inconclusive: 31.6 µM [inhibitor, single point]
31 | O=C(c1cc2c(s1)-c1ccccc1OC2)N1CCCC1 | inconclusive: 28.2 µM [inhibitor, partial curve]
32 | Cc1cc(/C([O-])=C(/C(=S)Nc2ccccc2)[n+]2ccccc2)c(C)n1-c1ccccc1 | inconclusive: 28.2 µM [inhibitor, partial curve]
33 | COc1ccc(N2CCN(S(=O)(=O)c3ccc(OC)c(-c4noc(C)n4)c3)CC2)cc1 | inconclusive: 2 µM [inhibitor, full curve]
34 | COc1ccccc1-c1cn[nH]c1-c1ccc(OCc2ccccc2)cc1O | inactive
35 | N#CC1=C(N)Oc2nc(-c3ccccc3)[nH]c2C1c1cccnc1 (stereo not given) | inconclusive: 31.6 µM [inhibitor, partial curve, poor fit]
36 | COc1ccc(-c2cn3nc(N4CCC(C(=O)Nc5cccc(OC)c5)CC4)sc3n2)cc1 | inconclusive: 5.01 µM [inhibitor, partial curve]
37 | Cc1cc(SCC(=O)O)nc2ccccc12 | inactive
38 | CC(C)(C)C1CCc2c(sc(NC(=O)C3CC=CCC3C(=O)O)c2C#N)C1 (stereo not given) | inactive
39 | O=C(N/N=C/c1ccc([N+](=O)[O-])cc1)C(=O)N1CCCC1 | inconclusive: 14.1 µM [inhibitor, single point]
40 | CCCCOc1ccc(C(=O)NCCc2sc(-c3cccc(F)c3)nc2C)cc1 | inconclusive: 3.55 µM [inhibitor, partial curve]
41 | Cc1cc(=O)[nH]n(CCO)c1=O | inactive
42 | COC(=O)c1ccc(NC(=O)CC2C(=O)N(c3ccc(F)cc3)C(=O)N2Cc2ccc(OC)cc2)cc1 (stereo not given) | inactive
43 | CCOc1ccc(/C=C/c2nc(C#N)c(NC(C)CC)o2)cc1 (stereo not given) | inconclusive: 3.55 µM [inhibitor, full curve]
44 | CCOC(=O)N1CCN(C(=O)CSc2nnc(-c3cc(OC)ccc3OC)o2)CC1 | inconclusive: 25.1 µM [inhibitor, single point]
45 | O=C(COc1ccc2ccccc2c1)N/N=C/C1CC=CCC1 (stereo not given) | inconclusive: 31.6 µM [inhibitor, single point]
46 | CCc1cccc(NC(=O)c2cnc(SC)nc2-c2ccccc2)c1 | inactive
47 | CNC(=O)c1ccsc1NC(=O)c1ccc(Cl)s1 | inconclusive: 22.4 µM [inhibitor, partial curve]
48 | N=c1c(C(=O)NCc2ccco2)cc2c(=O)n3ccccc3nc2n1CCc1ccccc1 | inconclusive: 11.2 µM [inhibitor, partial curve]

Row | SMILES | Potency
49 | CN(C(=O)COc1ccccc1)c1nc(-c2ccc(F)cc2)cs1 | inconclusive: 0.631 µM [inhibitor, full curve]
50 | CCn1c(N)c(Br)c(=O)[nH]c1=O | inconclusive: 31.6 µM [inhibitor, single point]
51 | COc1ccc(C(=O)C2CCCN(Cc3nc4ccccc4nc3C)C2)cc1OC (stereo not given) | inconclusive: 3.98 µM [inhibitor, single point]
52 | COc1ccc(S(=O)(=O)N2CCOCC2)cc1NC(=O)CSc1ncnc2ccccc12 | inconclusive: 25.1 µM [inhibitor, single point]
53 | O=c1cc(-c2ccccc2)n(S(=O)(=O)c2ccccc2)o1 | inconclusive: 20 µM [inhibitor, partial curve]
54 | CCN(C(=O)COC(=O)/C=C/c1cnc2ccccc2n1)c1ccccc1 | inconclusive: 15.8 µM [inhibitor, partial curve]
55 | Cc1ccc(C)n1-c1c(C(=O)NCCCN2CCN(c3ccc(F)cc3)CC2)sc2ncccc12 | inconclusive: 31.6 µM [inhibitor, single point]
56 | O=C(N/N=C1/CCc2ccccc21)C1CC1 | inactive
57 | COC(=O)c1c(C)[nH]c(C(=O)COC(=O)Cc2ccc3c(c2)OCCO3)c1C | inconclusive: 17.8 µM [inhibitor, partial curve]
58 | COc1ccc2c(c1)CCc1c(C(=O)N(C)c3ccccc3)noc1-2 | inconclusive: 2.51 µM [inhibitor, partial curve]
59 | COc1ccc(NC(=O)CSc2nc3ccncc3[nH]2)c(OC)c1 | inactive
60 | COc1cccc(C=NCCNC(=O)c2nonc2N)c1O | inconclusive: 35.5 µM [inhibitor, partial curve, poor fit]
61 | O=C(NP(=O)(N1CCCC1)N1CCCC1)C1=C(N2CCOCC2)/C(=C/c2cccc([N+](=O)[O-])c2)CC1 | inactive
62 | CC1CN(C(=O)N2CCC(C(=O)NCCC3=CCCCC3)CC2)c2cc(Cl)ccc2O1 (stereo not given) | inactive
63 | COc1cc(NC(=O)c2cccs2)c(OC)cc1NC(=O)CCC(=O)Nc1ccc2ncccc2c1 | inconclusive: 12.6 µM [inhibitor, partial curve]
64 | CCc1ccc(NC(=O)c2ccc(F)c(S(=O)(=O)N(C)C3CCCCC3)c2)cc1 | inactive
65 | CCc1ccc(NC(=O)CSc2nccn2-c2cccc(C)c2C)cc1 | inconclusive: 20 µM [inhibitor, single point]
66 | Cc1nonc1C1CCCN1Cc1cn[nH]c1-c1ccc(-c2ccccc2)cc1 (stereo not given) | inactive
67 | Cc1cc(NC(=O)CSc2nc3c([nH]c4ccccc43)c(=O)n2-c2ccccc2)no1 | inactive
68 | O=C(C1CCCN(S(=O)(=O)c2ccc(Br)s2)C1)N1CCN(c2ccc(F)cc2)CC1 (stereo not given) | inconclusive: 2.82 µM [inhibitor, full curve, poor fit]
69 | CC1=C(C(=O)OCC(C)C)C(c2ccc(OCc3ccccc3)cc2)N2C(=O)CCSC2=N1 (stereo not given) | inconclusive: 44.7 µM [inhibitor, single point]
70 | Cc1ccc(Cl)cc1N1CCN(C(=O)c2cccn3c(=O)c4cc(Cl)ccc4nc23)CC1 | inactive
